# According to ChEMBL document CHEMBL4888484, “Replenishing the malaria drug discovery pipeline: Screening and hit evaluation of the MMV Hit Generation Library 1 (HGL1) against asexual blood stage Plasmodium falciparum ,using a nano luciferase reporter read-out” (2022):
# The campaign covered roughly 150,000 compounds. About 540 (0.36%) showed an effect of 50% or more. The list shows a part of the results.
# Test system: Plasmodium falciparum
# Test: Primary screen in NF54 nanoGlo assay, in single point, at 2uM, 72h; a lower Z score goes with more inhibition
# Format: functional, Erythrocyte
# Conditions: timepoint 72 hour
SMILES,% Inhibition,Z score
CC1=CC[C@H]2CN(C(=O)Cc3c[nH]c4ccccc34)C[C@H]2C1,-7%,0.7
COc1ccc(C(=O)CN2CCC(COCc3ccc(C#N)cc3)CC2)cc1,-12%,1.36
COCCCN1C(=O)c2ccc(C(=O)Nc3ccc(Oc4ccc(OC)cc4)cc3)cc2C1=O,-3%,0.47
CCN(Cc1ccco1)C(=O)N[C@H]1CCS(=O)(=O)C1,-9%,1.61
CNc1nnc(Cc2csc(NC(=O)c3cc4c(nc3OC)CCC4)n2)s1,-21%,2.26
O=C(N[C@H]1CCCN(CCCc2ccccc2)C1)c1c[nH]c2ncnn2c1=O,9%,-1.24
CCOc1cc(CN[C@H](C(N)=O)[C@@H](C)O)c(Cl)cc1OC(C)C,-17%,2.49
CCC[C@H](C)c1nc(N2CCCN(C(=O)c3ccccc3C)CC2)c2c(C)nn(-c3ccc(F)cc3)c2n1,-5%,0.62
C[C@H]1CN(C(=O)c2cc3sccc3[nH]2)CC2(CCC2)O1,2%,-0.35
Cc1ccc([C@@H]2Cn3cnc(C(=O)N4CCC(C(=O)NCCC5=CCCCC5)CC4)c3CO2)cc1,-19%,1.77
CN1CCCC1CCN1CCC[C@@H](NC(=O)OC(C)(C)C)C1 (some centres undefined),-6%,0.78
CC(C)c1nnc(Cn2nnc(-c3ccncn3)n2)s1,39%,-7.06
COc1ccc2ncn([C@H]3C[C@H]4CC[C@@H]3C4)c(=O)c2c1,-2%,0.28
CC1CN(C(C)C)CC1NC(=O)N1Cc2ccccc2[C@@H]1C (some centres undefined),-12%,2.12
Cn1nccc1C1CC2CCC(C1)N2S(=O)(=O)c1ccoc1 (centres undefined),11%,-2.06
O=C(O)[C@@H]1CN(c2ncccn2)CCN(C2Cc3ccccc3C2)C1,-1%,0.12
O=C(Nc1ccc(N2CCN(Cc3cccc(Oc4ccccc4)c3)CC2)nc1)c1ccccc1F,-8%,1.22
O=C(c1ccnc(-c2ccc(F)c(F)c2)c1)N1CCOCC1,-5%,0.94
COC1CC(CN(C)[C@@H]2COC[C@H]2O)N(C(=O)OC(C)(C)C)C1 (some centres undefined),-7%,0.67
O=C(NC1CC1)c1coc(CN(Cc2ccccc2)Cc2cccc(Cl)c2Cl)n1,1%,-0.23
N#CCC1(O)CN(Cc2cscn2)C1,-8%,1.19

SMILES,% Inhibition,Z score
COc1ccsc1C(=O)N(CCc1nccs1)C(C)C,-2%,0.23
COCCC(=O)N1CCN(C(=O)c2cscc2C)CC1,5%,-0.67
NC(=O)c1ccc(S(=O)(=O)NC(=O)[C@H]2CC[C@H](c3ccccc3)C2)s1,-5%,0.42
Cc1cc2n(n1)C(C(F)(F)F)CCN2C(=O)C(C)N1C(=O)C2CCCCC2C1=O (centres undefined),34%,-4.9
COc1ccc(-c2noc(CN3CCC(C(=O)N4CCCC4)CC3)n2)cc1OC,-2%,0.35
COc1cc(NC(=O)N2CCC[C@H]2c2cc(C(C)C)no2)cc(OC)c1OC,-1%,0.12
Cc1nc(CC(=O)Nc2nc(C)c(C)s2)cs1,-7%,1.17
C[C@@H](c1ccccc1)N(Cc1ccc(Cl)c(Cl)c1)Cc1nc(C(=O)NC2CC2)co1,-9%,1.09
O=C(NCc1cccnc1Oc1ccc(F)c(F)c1)C1CCOCC1,-3%,0.53
Cc1nnc(CNC(CC2CCOC2)c2ccccc2)s1 (centres undefined),-10%,1.62
COc1ccc(NC(=O)c2ccc(-n3c(N)c(C#N)c4nc5ccccc5nc43)cc2)cc1,-3%,0.46
OC[C@H]1CCCN(CCNCc2ccc3cc(Cl)ccc3n2)C1,-6%,0.96
CCOCCOC(=O)c1nc2ccccc2nc1Nc1ccc(OC)c(Cl)c1,0%,-0.01
C#CCOc1cccc(NC(=O)C(=O)NCc2nccs2)c1,-12%,1.55
CC(C)=CCCN1CC[C@H](NC(=O)c2ccccc2)[C@@H](O)C1,-5%,1
CCO[C@H](C(=O)N1CCc2c(cnn2-c2ccccc2)C1)C(C)C,0%,0.02
COc1ccc(NC(=O)CCc2c(C)nn(-c3cc(N4CCCC4)ncn3)c2C)c(OC)c1,-9%,1.86
O=C1NCCN1CCNc1cc(C2CC2)ncn1,2%,-0.18
CC(C)=CCN1CCN(Cc2cccc3ccccc23)[C@H]2CS(=O)(=O)C[C@H]21,-5%,0.57
O=C(NCC1(N2CCOCC2)CCCCC1)c1nc2n(n1)-c1ccccc1S(=O)(=O)N2,-7%,1.13
Cc1ncsc1C(=O)N(C)C1CN(c2ccc3nnc(C4CCC4)n3n2)C1,-14%,2

SMILES,% Inhibition,Z score
COc1ccccc1NC(=O)C[C@H]1C(=O)Nc2ccccc2N1C(=O)c1ccccc1,5%,-0.88
O=C(Nc1nc(-c2ccccc2)cs1)c1sc2cccc(Cl)c2c1Cl,-7%,0.79
O=C(Nc1ccccc1N1CCCC1)NC1CCCC2OCCC12 (centres undefined),-7%,0.81
C[C@@](Cn1cccn1)(NC(=O)c1ccc(Cl)s1)C(N)=O,-6%,0.83
O=C(c1ccco1)N1CCN(Cc2ccc3c(c2)CCO3)C[C@H](O)C1,-9%,1.05
Cc1[nH]c2ccc(OCC(=O)N(C)Cc3ccc(Cl)s3)cc2c1C,-5%,0.97
CCn1nccc1CNc1ccc(CN2CCN(C)CC2)c(Br)c1,-1%,0.14
Cc1c(C(c2ccc(-c3ccc(Cl)c(Cl)c3)o2)c2c(C)n(C)n(-c3ccccc3)c2=O)c(=O)n(-c2ccccc2)n1C,3%,-0.5
O=C1NC(=O)N(Cc2ccccc2)[C@H]1c1cccs1,5%,-0.76
Cc1cc(F)c(Br)cc1NCc1cncn1C,-37%,4.34
Cc1noc(C)c1N(C)CC(=O)N1CCCC[C@@H]1C,-2%,0.2
Cc1c([C@H](C)NC(=O)N2CC(C)S(=O)(=O)C(C)C2)oc2ccccc12 (some centres undefined),-5%,0.68
Cc1cn(C)c(CC(=O)N2CCN(c3cccc(C(F)(F)F)c3)CC2)c1C(=O)O,1%,-0.13
CCO[C@H]1COCC[C@@H]1NC(=O)c1ccc2c(c1)OCO2,-9%,0.95
C[C@@H](C(=O)NCCCN(C)C1CCCCC1)n1nc(-c2ccccc2)c2cc(Cl)ccc21,-4%,0.81
Cn1ccnc1-c1ccccc1C(=O)Nc1ccc(Oc2nnn[nH]2)cc1,1%,-0.18
CN1CCc2[nH]cnc2C12CCN(C(=O)[C@@H]1COc3ccccc3C1)CC2,0%,-0.01
COc1ccccc1CC(=O)c1ccc(O)c(CN2CCOCC2)c1O,-3%,0.39
Cc1cccc(OCC(=O)N2CC[C@H](Oc3cnccn3)C2)c1,-13%,1.53
COc1cc(C)ccc1OCc1nc(C(=O)NC2CCCC2)co1,3%,-0.29
FC(F)(F)c1cccc(-c2cn[nH]c2[C@H]2CCCNC2)c1,-3%,0.47

SMILES,% Inhibition,Z score
COc1ccccc1CNC(=O)c1cnn2c3c(cnc12)CCCC3,31%,-4.49
CN(Cc1ccc(Cl)s1)C(=O)CNCCn1cccn1,-9%,1.62
O=C(NCc1nc(C(F)(F)F)n[nH]1)[C@H]1CC12CC2,-12%,1.86
COc1ccc(OC(C)C)c(NC(=O)N2CCO[C@H]3CN(C(=O)OC(C)(C)C)C[C@H]32)c1,-3%,0.45
Cc1cccc([C@@H](NC(=O)c2cc(C)nc(C)n2)C2CC2)n1,-7%,0.87
CN(C)C(=O)N1C[C@H]2CC[C@@H](C1)N(Cc1nnc(-c3ccccc3)o1)C2,-1%,0.15
COCC(=O)N[C@H]1CCN(c2nccs2)C1,-8%,1.6
CN(C)Cc1cc2n(n1)CCN(Cc1cnc(-c3cccs3)nc1)C2,-8%,0.82
CCn1nc(-n2cnnc2)c(NS(=O)(=O)c2ccc(C)cc2)c1C,-9%,1.53
COc1ccc(F)c(CN2CCC[C@@]3(CCN(C(=O)c4ccoc4)C3)C2=O)c1,-16%,1.37
Cn1ccnc1C(O)C1CCCN(Cc2ccc(F)cc2C#N)C1 (centres undefined),-2%,0.23
CC(C)Cn1cncc1CNC(=O)CCc1ccc(F)cc1F,-5%,0.94
O=c1c(CN[C@H]2CC[C@H](O)CC2)cc2ccc(F)cc2n1Cc1ccncc1,-1%,0.13
CC(C)(CS(=O)(=O)NCc1ccno1)C(F)(F)F,-11%,1.39
c1ccc(-c2nc(NCc3nnc(C4CC4)o3)c3ccccc3n2)cc1,-1%,0.22
Cc1cc(C(F)(F)F)n(C[C@@H](C)CNC(=O)Nc2ccc3[nH]nnc3c2)n1,-4%,0.57
Cc1noc2ncnc(NCCCN3CCOCC3)c12,-12%,2.13
CO[C@H]1CCCN(C(=O)c2cnc(COc3ccc(C(C)(C)C)cc3)nc2O)C1,0%,0
Cc1ccc2[nH]c(=O)cc(C(=O)N3CC(=O)N(c4ccccc4C)C[C@@H]3C)c2c1,0%,0.07
